The assay deals with T1, FLAG-tagged full length ARMC12 (armadillo repeat-containing 12) (mouse) (UniProt Q80X86).
T1 sequence: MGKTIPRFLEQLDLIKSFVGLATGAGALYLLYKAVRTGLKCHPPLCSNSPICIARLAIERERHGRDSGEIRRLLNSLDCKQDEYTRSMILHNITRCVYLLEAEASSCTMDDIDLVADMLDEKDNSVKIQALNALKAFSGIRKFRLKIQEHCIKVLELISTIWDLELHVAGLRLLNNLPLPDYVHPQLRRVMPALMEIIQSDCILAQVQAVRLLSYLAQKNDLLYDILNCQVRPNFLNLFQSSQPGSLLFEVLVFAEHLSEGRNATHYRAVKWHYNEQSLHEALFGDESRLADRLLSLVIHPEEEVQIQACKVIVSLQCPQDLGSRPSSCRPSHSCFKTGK
In words: co-IP; lysates of HEK293T cells transfected with FLAG-tagged ARMC12 (full length or truncated); immunoprecipitation with anti-FLAG antibody; immunoblot for the endogenous partner.

Amino acid sequences for entries named in this document (tags omitted).
UniProt O00429: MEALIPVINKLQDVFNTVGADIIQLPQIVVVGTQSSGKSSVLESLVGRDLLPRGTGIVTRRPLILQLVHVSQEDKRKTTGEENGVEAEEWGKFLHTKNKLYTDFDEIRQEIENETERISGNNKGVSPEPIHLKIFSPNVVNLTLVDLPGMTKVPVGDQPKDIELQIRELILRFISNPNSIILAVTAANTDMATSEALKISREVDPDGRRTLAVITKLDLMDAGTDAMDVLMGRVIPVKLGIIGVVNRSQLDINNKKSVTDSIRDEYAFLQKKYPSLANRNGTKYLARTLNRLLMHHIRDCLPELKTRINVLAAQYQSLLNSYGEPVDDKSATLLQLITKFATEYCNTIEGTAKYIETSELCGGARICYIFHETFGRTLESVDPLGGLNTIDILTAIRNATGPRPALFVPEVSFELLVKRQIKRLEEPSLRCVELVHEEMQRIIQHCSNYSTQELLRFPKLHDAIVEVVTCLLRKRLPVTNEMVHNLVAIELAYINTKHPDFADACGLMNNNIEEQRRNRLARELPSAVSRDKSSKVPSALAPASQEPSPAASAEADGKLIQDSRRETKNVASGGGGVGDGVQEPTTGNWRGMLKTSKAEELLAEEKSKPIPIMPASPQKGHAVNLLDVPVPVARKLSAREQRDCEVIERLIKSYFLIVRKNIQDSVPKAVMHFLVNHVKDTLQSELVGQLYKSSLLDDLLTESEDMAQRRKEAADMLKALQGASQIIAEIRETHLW

Results are given in words; binding and its absence hold for the method and conditions named. Binding seen in cells or lysates may run through a third protein. Tags and fused reporters may be left off the sequences shown.

Turning to “DNM1L (endogenous, HEK293T) (from UniProt O00429 1-736)”, the binding result is “no binding”.

The values are drawn from article PMC8017931.
